Source: the supplement of paper PMC11417369
± gives the standard deviation of the averaged measurements. This is one part of the list.

Tested on: PfAP2-G AP2 domain (GST-tagged)
Test: gcPBM binding intensity (ln(normalized median fluorescence intensity)); higher = stronger DNA binding
Method in brief: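 GST-fused DNA-binding domains of P. falciparum, expressed in E. coli, were applied at about 25 μg on average for 1 h to an Agilent 4 × 180k array of primer-extended double-stranded 36-bp intergenic genomic probes and negative controls. Binding intensity is the highest Masliner-normalised natural-log median intensity across replicate spots of either probe orientation, measured with Alexa488 anti-GST antibody and a 488 nm scan.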

Sequence | gcPBM binding intensity (ln)
AAAAAAAAGTTATATACACACATATAAATATAAATA [CACACA_site6683] | 9.805 ± 0.035
TATATTTATATAATATGTACATATTTTTTAATATTT [XGTACX_site3834] | 11.2 ± 0.72
TATTTTATTTTCCGAAGTACAAAAGCAAAAAAAAAC [XGTACX_site103] | 11.3 ± 0.87
AGCTAAAATATTTTTGCACACGATTTTTTTTTTTTT [CACACA_site1140] | 9.89 ± 0.042
TATATTCAATTTTTGGTGCGTAAATTAATACAAACA [GTGCAC_site9764] | 10.3 ± 0.35
ATATATTATATTATATGTACTTAAAAAAGTGCAAAG [XGTACX_site318] | 11.4 ± 0.88
TATTAATTTTTCCTTTTTTTTTTACCCCTTTGTACA [CACACA_negctrl_site947] | 10.05 ± 0.014
ATGCACGGAAAAATATGTACTTAATTTCAATAATAT [XGTACX_site8311] | 11.3 ± 0.79
CGGACATACTAACGGACACACGTAAGAAAAAAAAAG [CACACA_site4504] | 11 ± 0.64
TATATGTCCATATTTCCACACACATATTATTTTTAT [CACACA_site9266] | 10.8 ± 0.42
TTTTTTCAATAAATAATCGTATATTGAATAATAATA [CACACA_negctrl_site822] | 9.59 ± 0.042
AGAGAGAACGGTATAACATGCGATAAATTTTAGAAG [TGCATGCA_site357] | 9.89 ± 0.2
ATTTTAATTTTGTATACACACATTTGAATTATTAAT [CACACA_site3528] | 10.1 ± 0.12
AATATATACATATATACACACACATATATATATATA [CACACA_site8907] | 10 ± 0.27
TAAAATGTTATAAGAACATGCAATTCCTTTTATTAT [TGCATGCA_site408] | 9.56 ± 0.21
AAATAATACATTCGTACTACACATATATATTAAATA [XGTACX_site7806] | 11 ± 0.71
TTTTTAGAAAAGGTTATAAAAAATTAATTGAAAAAA [GTGCAC_negctrl_site289] | 9.845 ± 0.035
AATCAATATTATATATGTACTTATTTTCACTTTTGC [XGTACX_site1775] | 11.3 ± 0.88
TATATATATTCTTTGTGTACTCATATAAGGGTAGAA [XGTACX_site8121] | 11.6 ± 1.1
TTGTCATTATTATATTGTACAATAAGTATTAAAGAA [XGTACX_site1205] | 11 ± 0.55
AACTGATATTAATTCTGTACCTATACGTTATATGTT [XGTACX_site1003] | 10.8 ± 0.54
TATGAACATATATATTGTACAAAATTATAATTTCAA [XGTACX_site6406] | 10.7 ± 0.47

Sequence | gcPBM binding intensity (ln)
AAGCGAATCTATATCACACACAAAAAAATCAGACTA [CACACA_site7072] | 9.97 ± 0.22
AGTTCAGAATTGAATAGTACATAAATATAACAAAAT [XGTACX_site650] | 11 ± 0.64
AAAAAAAAAAGACACACACACACATACACATACATA [CACACA_site7362] | 10.2 ± 0.13
TATATATATATATATATATATATATATATAATTTGA [XGTACX_negctrl_site3] | 9.72 ± 0.52
TTATTATATATGTTCACATAAATACATAAATATATA [GTGCAC_negctrl_site529] | 10 ± 0.32
TTAAAAAAGTAATTAACACACAATAATGTAATGCAT [CACACA_site4176] | 9.9 ± 0.13
AAAAATAAATATACATGTACATAATAATAATATATA [XGTACX_site8359] | 11.3 ± 0.74
TTTGAAAAAAAATATTGTACACGTGAATAAAGTATT [XGTACX_site644] | 11.3 ± 0.91
TTGCATCTATTTTTGAGTACACAATGAGAATAATTA [XGTACX_site7171] | 11.5 ± 0.9
ACCCAAAATATATTCACACAAAAAATATTAAAAATA [CACACA_site5433] | 9.96 ± 0.13
TTAGGTTATAAATACACACACAAAAGAAAAAAAAAA [CACACA_site5625] | 10.2 ± 0.27
TAATATATATAACAAGTGCAAAAAAATATAGATATT [GTGCAC_site9625] | 10.005 ± 0.007
AATAAACAAATAAATAAATAAACAGATAAATAAATC [CACACA_negctrl_site920] | 9.73 ± 0.11
GAGAACATTGATACACGTACATAAGTTATAAGTATT [XGTACX_site7665] | 11.4 ± 0.82
AAGCATCCTACTGATTGTACATATATATATATATAT [XGTACX_site2150] | 10.9 ± 0.45
AAATATATTATATATGCATGCGCCAAGATTTATATA [TGCATGCA_site770] | 9.94 ± 0.15
TATTTAAATTAATATTGTACATATATTTATAATATA [XGTACX_site6109] | 11.1 ± 0.71
TTTATTTATATAATTACACACATATATACACAAATG [CACACA_site8903] | 10.2 ± 0.28
TTGTTTTCTTTTTCTTTTCTTTTTCTTTTTTCTTTT [GTGCAC_negctrl_site629] | 9.89 ± 0.042
TATATATATATAAAGACACACATCTATAGAATGTTA [CACACA_site2557] | 10 ± 0.31
TATTTATATTTATACACACACACAAAAAAAAAAAAA [CACACA_site6817] | 10.1 ± 0.49
ACATAAATATATGACACACACACATATTATATATAT [CACACA_site3065] | 10.11 ± 0.085

Sequence | gcPBM binding intensity (ln)
CCATTACCATATAAAACACACAAACATACATACATA [CACACA_site5952] | 10.09 ± 0.057
GTATAATTATGTGCACGTACATATTTTATTATATAT [XGTACX_site8586] | 11.5 ± 0.9
AAAAAAAAAAAAAAAGCACACACACCGATGTGTATA [CACACA_site8224] | 10.19 ± 0.085
TATATATATATACCTTGTACTTACATTCGCATATAA [XGTACX_site2466] | 11.3 ± 0.93
TACCAAATTTATTCTTGTACATATATATATATATAT [XGTACX_site4832] | 10.8 ± 0.48
TTTATGACTTGAAAAAGTACACATATATTTATGCAA [XGTACX_site5451] | 11.5 ± 0.91
ATTATTATACACAAATGTACATGTGAATTTTTTTTC [XGTACX_site6982] | 11 ± 0.54
AATAAGTAACAAAATACACACATATAGGTAATTATA [CACACA_site6949] | 9.99 ± 0.099
AAAAGGAAAAATATCACACATATATATATATATATA [CACACA_site5586] | 10.1 ± 0.73
ATATATATTTATAGGTGTACAAAATACTATTTTAGG [XGTACX_site8499] | 11.3 ± 0.82
TTAATTCTACTTATTACACACATATTAAGCAAAAAT [CACACA_site4921] | 10.1 ± 0.26
TTACCCATTCCCTTTACATGCAATTTGTATTAATAA [TGCATGCA_site412] | 10.1 ± 0.11
GTACGTTAGATATATACACACATACATAATAAAGAA [CACACA_site7327] | 10.8 ± 0.28
AAAATATATACAATATGTACATATATATATATATAT [XGTACX_site1898] | 11.2 ± 0.73
ATATGTTCCGAAGGTTGTACACACATAGAAATATAC [XGTACX_site8227] | 11.6 ± 1
ATATATATTAACAATACACACGTGTATACCTTATTG [CACACA_site5258] | 10.5 ± 0.22
TTCATCTTAAAATTGGGTACATAACACAAAGTATAA [XGTACX_site1894] | 11.3 ± 0.93
ATTTCTCTATCGTAATGTACATAAAAAAGAAAAACA [XGTACX_site6374] | 11.2 ± 0.77
TTATTAAATTCATAAGTGCATTTATGATTAATTTTT [GTGCAC_site9749] | 9.73 ± 0.16
ATGATAAACATGGATACACACATATAGATTGCATAT [CACACA_site6843] | 10.2 ± 0.11
TTTTTTTTTTTTTTTTGTCCGTACTGCTTTGTGTTT [XGTACX_site3687] | 11.1 ± 1.1
TTACATGTAAAAGGTACACACATTATGTATACAAAT [CACACA_site1117] | 11.4 ± 0.88

Sequence | gcPBM binding intensity (ln)
AAAATTTTTAGTTATACACACAACATAGAAAATATT [CACACA_site328] | 10.13 ± 0.092
CTATAAATATTTTATTGTACACACTTTTTATGAATG [XGTACX_site6711] | 11.6 ± 0.73
ATATATATATAGTGCACACTTAAGAATATAAAGAGG [CACACA_site1151] | 10.5 ± 0.28
AATACATACAGACACACACACACATATATATATATA [CACACA_site3558] | 10.3 ± 0.43
AAACTTAATATCGGTACACACACAAGATAAGAATTA [CACACA_site8200] | 11.1 ± 0.85
CACATACACCCATACACACACATATATATTAAGATA [CACACA_site4459] | 10.3 ± 0.36
GAACAGTTTGTTTAGTGTACTTTTTTTTTTTTTTTT [XGTACX_site8881] | 11.6 ± 0.89
AATAATTTTATCGGTACACACTGTATGCATAATATT [CACACA_site4364] | 11.1 ± 0.78
GTAAGAAACAGACACACACACATATATATATATATA [CACACA_site794] | 10.2 ± 0.51
CTTAATTTAATGAAATGTACATATAAAAATATTATA [XGTACX_site3303] | 11.1 ± 0.67
TTTGATCGATGGATTTAACACACAAAAAAAAAAAAA [CACACA_site9279] | 9.88 ± 0.5
ATGTACAAAATAAGCACACACAAAAAAAAAAAAAAT [CACACA_site2998] | 10.6 ± 0.61
TCAAAAATAAAGATCACACATATATATATATATATA [CACACA_site4381] | 10.3 ± 0.99
TCTAATTACAAAAACATACACACAAAAAAAAAAAAA [CACACA_site3783] | 9.76 ± 0.42
CCTATAAATGCATTCACACATATATATTTATATTAT [CACACA_site6086] | 10.1 ± 0.13
GGTATAATAATATATAGTACACACAAAAATGGAAGT [XGTACX_site7058] | 11.3 ± 0.76
ATATACACACAAAAACGTACACATATATATATGTAT [XGTACX_site2673] | 11.7 ± 0.86
AAAAAAAAAAAAAACACACACATACACCCAAAAATG [CACACA_site4223] | 10.4 ± 0.18
AAAAAAAAAAAAAGCACACATATAAATATGAATAAA [CACACA_site1393] | 9.83 ± 0.17
GATGATAATAAATTTATATATAATATTATCTTATGT [GTGCAC_negctrl_site672] | 9.51 ± 0.26
CATATTAAAAATTATTGTACATATTAATGAATATAA [XGTACX_site2734] | 11 ± 0.76
ATTTTTGCAGTAATTAAATAGACAAAATGAAAAAAA [CACACA_negctrl_site1537] | 10.12 ± 0.014
